Assay results: ChEMBL document CHEMBL5308541, “MAIP: An Open-Source Tool to Enrich High-Throughput Screening Output and Identify Novel, Druglike Molecules with Antimalarial Activity” (ACS Med Chem Lett, 2023)
Among all 150,000 compounds or so, about 540 (0.36%) showed an effect of 50% or more. The list shows a part of the results.

Each compound was assayed on Plasmodium falciparum (assay: Primary screen in NF54 nanoGlo assay, in single point, at 2uM, 72h; a lower Z score goes with more inhibition). Conditions: timepoint 72 hour.
Type: functional, Erythrocyte
In the case of `O=C(N1CCC(CNc2ncnc3[nH]ncc23)CC1)C(F)(F)F`, the “% Inhibition” value is reported as -6% and the Z score is reported as 1.03. `O=C(Cc1cccc(C(F)(F)F)n1)N1CCn2ncnc2C1` was tested, and the “% Inhibition” value was -9% and the Z score was 1.89. For `CN1CCN(Cc2cccc(C(=O)NC3CCN([C@H]4CCOC4)CC3)c2)CC1`, the “% Inhibition” value was -4% and the Z score was 0.6. With `Cc1cccc(N2CCC(NS(=O)(=O)c3cnc4onc(-c5ccccc5)c4c3)CC2)n1` the “% Inhibition” value was -2% and the Z score was 0.34. With `COCCCn1ccc(Nc2ncnc3cccc(F)c23)n1` the “% Inhibition” value was -7% and the Z score was 1.33. `CN(Cc1ccc2ncccc2c1)C(=O)[C@@H](N)CCCNC(N)=O` was tested, and the “% Inhibition” value was 3% and the Z score was -0.72. In the case of `O=C(NC1CCN(Cc2ccncc2)CC1)c1ccnc(OCC(F)F)c1`, the “% Inhibition” value is reported as 3% and the Z score is reported as -0.55. With `CN(CCN1CCOC2CCCCC21)CCN1CCOC2CCCCC21` (stereo not drawn) the “% Inhibition” value was -16% and the Z score was 3.55. For `CC(C)OCC(=O)Nc1cc(Cl)ccc1C(=O)[C@H]1CCOC1`, the “% Inhibition” value was -2% and the Z score was 0.42. `Cc1ccc2nc(-c3ccccc3)c(CN(C)C3CCN(C)CC3)c(O)c2c1` was tested, and the “% Inhibition” value was -1% and the Z score was 0.1. For `O=C1c2ccccc2-c2c[nH]c3c(Oc4ccccc4)c(N4CCOCC4)c(O)c1c23`, the “% Inhibition” value was 4% and the Z score was -0.67. In the case of `COc1ccc(-c2ccc(C(=O)N3CCN(CCN(C)C)CC3)cc2)cn1`, the “% Inhibition” value is reported as 4% and the Z score is reported as -0.75. For `Cc1ccc(OC2CCN(Cc3ccc(-n4ccnc4)nc3)CC2)nc1`, the “% Inhibition” value was -4% and the Z score was 0.64. `O=C(C1CN2CCCN1CC2)N1CCC(c2nccc(-c3cncnc3)n2)CC1` (stereo not drawn) was tested, and the “% Inhibition” value was 3% and the Z score was -0.48. For `COc1cccc(F)c1CN(CCO)Cc1nc[nH]c1C`, the “% Inhibition” value was 3% and the Z score was -0.46. For `O=C(NC1CCN(Cc2ccccc2)CC1)C1CN(c2cc(-c3ccccc3)ncn2)C1`, the “% Inhibition” value was -2% and the Z score was 0.41. For `COc1ccc2[nH]cc(C3CCN(c4ncnc5[nH]ncc45)CC3)c2c1`, the “% Inhibition” value was -5% and the Z score was 0.89. In the case of `OC[C@H]1CCCN1Cc1ccccc1CNc1ncnc2[nH]ccc12`, the “% Inhibition” value is reported as -1% and the Z score is reported as 0.18. `Cc1c(N(C)Cc2cccc(O)c2)nn2c(C(F)(F)F)nnc2c1C` was tested, and the “% Inhibition” value was -7% and the Z score was 1.4. `Cc1cccc(NC[C@H]2CCN(c3cncc(OC(C)C)n3)C2)n1` was tested, and the “% Inhibition” value was 4% and the Z score was -0.81. For `CCN1CCN(c2ccccc2CNCCC2CCN(C)CC2)CC1`, the “% Inhibition” value was 27% and the Z score was -4.06. For `Fc1cc(-c2ccncc2)ccc1CNCc1cnc(N2CCOCC2)c(F)c1`, the “% Inhibition” value was -1% and the Z score was 0.21. For `CCc1c(C(=O)CN2CCOC[C@H]2C(N)=O)[nH]c(C)c1C(C)=O`, the “% Inhibition” value was -2% and the Z score was 0.32. With `Fc1ccc(N2CC[C@H](CNc3ccc4nnc(-c5ccccc5)n4n3)C2)cc1` the “% Inhibition” value was -10% and the Z score was 1.72. For `NC(=O)C1CCN(CCCCNCc2cnc3ccnn3c2)CC1`, the “% Inhibition” value was 1% and the Z score was -0.23. For `C[C@@H]1CNCCN1Cc1cccc(OCCN2CCCCC2)c1`, the “% Inhibition” value was -4% and the Z score was 0.73. `COc1ccc(C(=O)NCCc2scnc2C)cc1N1CCOCC1` was tested, and the “% Inhibition” value was -5% and the Z score was 0.89. For `O[C@H](COC1CCCCC1)Cn1cnc(-c2ccccc2)c1-c1cccnc1`, the “% Inhibition” value was -9% and the Z score was 1.94. In the case of `O=C(c1nnc(N2CCN(c3ccccc3F)CC2)c2ccccc12)N1CCN(CCN2CCOCC2)CC1`, the “% Inhibition” value is reported as 15% and the Z score is reported as -2.65. In the case of `CC(C)C1OCCCC1Nc1ccnc(N2CCC(CN3CCOCC3)C2)n1` (stereo not drawn), the “% Inhibition” value is reported as 3% and the Z score is reported as -0.46. For `CC(C)n1cc(NC2CCN(c3cccc(-c4ccn[nH]4)c3)CC2)nn1`, the “% Inhibition” value was -7% and the Z score was 1.23. With `COc1cncc(N2CCN(CCCN3CCCCC3)CC2)c1` the “% Inhibition” value was -13% and the Z score was 2.19. With `Cc1cc(-c2nc3ccc(S(C)(=O)=O)cc3[nH]2)cc(C)c1O` the “% Inhibition” value was -1% and the Z score was 0.3. With `O=C(N[C@H]1CCNC1)c1cccc(OC2CCN(Cc3ccncc3)CC2)c1` the “% Inhibition” value was -7% and the Z score was 1.28. For `NC[C@H]1CCCCN1C(=O)c1ccccc1-n1cnnc1`, the “% Inhibition” value was -5% and the Z score was 1.14. With `Cc1nc2ccc(Oc3ccccc3)cc2c(O)c1CN(C)C1CCN(C)CC1` the “% Inhibition” value was 34% and the Z score was -6.83. `COc1ccc([C@@H](NC(=O)Nc2ncc(C3CCOCC3)s2)C2CC2)cn1` was tested, and the “% Inhibition” value was -2% and the Z score was 0.38. In the case of `OCCN1CCN(C2CCN(c3cc(C4CC(O)C4)ncn3)CC2)CC1` (stereo not drawn), the “% Inhibition” value is reported as 5% and the Z score is reported as -0.91. With `CCN(C)C(=O)CN1CCC[C@H](S(C)(=O)=O)C1` the “% Inhibition” value was -2% and the Z score was 0.31. `Cn1ccnc1C(O)C1CCCN(c2ncnc3[nH]ccc23)C1` (stereo not drawn) was tested, and the “% Inhibition” value was -5% and the Z score was 1.03. For `CN(C(=O)[C@H]1CCCN(CC(F)(F)F)C1)c1cccc2ncccc12`, the “% Inhibition” value was -5% and the Z score was 0.79. With `C[C@@H](C1CCN(Cc2cnc(-c3ccco3)nc2)CC1)N1CCN(C)CC1` the “% Inhibition” value was -1% and the Z score was 0.21. With `CCCCn1ccnc1[C@H]1CCCN(C(=O)c2cc(C(F)(F)F)nn2C)C1` the “% Inhibition” value was -5% and the Z score was 0.95. `CC(C)c1ccc(-c2csc3ncnc(Nc4ccc(Cl)c(C(F)(F)F)c4)c23)cc1` was tested, and the “% Inhibition” value was -15% and the Z score was 2.57. For `CN(C)CCN1CCC(CNCc2ccc3ncccc3c2)CC1`, the “% Inhibition” value was 40% and the Z score was -8.63. With `Cc1noc(-c2ccnc(NCCc3coc(-c4ccccc4)n3)c2)n1` the “% Inhibition” value was 0% and the Z score was -0.05. With `Cc1noc(-c2ccc(N3CC4CCC(C3)N(CC3CC3)C4)nc2)n1` (stereo not drawn) the “% Inhibition” value was -13% and the Z score was 2.24. `CC1CN(c2cccc3cnccc23)CCN1C(=O)[C@H]1CCCCN1` (stereo partly drawn) was tested, and the “% Inhibition” value was 10% and the Z score was -1.71. In the case of `Cc1ccc(-c2cc(C(=O)NCc3ccnc(O[C@H]4CCOC4)c3)[nH]n2)c(C)c1`, the “% Inhibition” value is reported as -2% and the Z score is reported as 0.34. `Cc1c(NC(=O)c2cc(-c3ccncc3)[nH]n2)cccc1-c1nncn1C` was tested, and the “% Inhibition” value was -3% and the Z score was 0.47. With `CCN(C(=O)CN(C)Cc1ccccc1F)C1COCC1O` (stereo not drawn) the “% Inhibition” value was 14% and the Z score was -3.06. In the case of `CC(C)CC1OCCCC1NCCC(=O)N1CCN(C)CC1` (stereo not drawn), the “% Inhibition” value is reported as 3% and the Z score is reported as -0.69. With `Cn1ccc2c(-c3cccc4c(N)ccnc34)ccnc21` the “% Inhibition” value was 6% and the Z score was -1.24. `Cc1ncnc(N2CCN(C(=O)c3cccc(-c4cncc(N)c4)c3)CC2)c1C` was tested, and the “% Inhibition” value was -3% and the Z score was 0.65. With `CCN(CC)C(=O)[C@@H]1C[C@H](N)CN1C(=O)c1cnc2c(c1)nnn2C` the “% Inhibition” value was -14% and the Z score was 2.15. For `NC1CCN(Cc2cc(O)c3cc(Cl)ccc3n2)CC1O` (stereo not drawn), the “% Inhibition” value was -5% and the Z score was 0.95. With `c1ccc(COc2cc(N3C[C@H]4COC[C@H]4C3)ncn2)cc1` the “% Inhibition” value was -5% and the Z score was 0.83. For `CCN1CCCC[C@@H]1CNc1ncnc(C)c1C`, the “% Inhibition” value was 7% and the Z score was -1.21. For `Cc1c(C(=O)N[C@H]2CCN(CC3CCCC3)C2)nnn1C1CCNCC1`, the “% Inhibition” value was -2% and the Z score was 0.36. In the case of `COc1ccnc(NCc2ccc(-n3cnc4ccccc43)cc2)n1`, the “% Inhibition” value is reported as 2% and the Z score is reported as -0.34. In the case of `Cc1c(Cl)cccc1Nc1c(-c2ccc3nccnc3c2)nc2c(C)cccn12`, the “% Inhibition” value is reported as -5% and the Z score is reported as 0.87. With `Fc1ccccc1CN1CCC[C@H](NCc2ccc(C#Cc3cncnc3)cc2)C1` the “% Inhibition” value was -9% and the Z score was 1.58. For `Cc1cc2cc(C(=O)N(C)Cc3cccc4ncccc34)ccc2o1`, the “% Inhibition” value was -2% and the Z score was 0.41. `O=C(Cc1c[nH]c2ccccc12)Nc1ccc(-n2cccn2)cc1C(F)(F)F` was tested, and the “% Inhibition” value was -5% and the Z score was 0.73. In the case of `Brc1cccc2c(-c3ccc4ncccc4c3)n[nH]c12`, the “% Inhibition” value is reported as -8% and the Z score is reported as 1.23. With `Cc1cc(-c2ccc(C(=O)N[C@H]3CCCN(c4cnccn4)C3)cc2)ccn1` the “% Inhibition” value was 7% and the Z score was -1.31. For `COCCC(=O)NC1COCC1Cc1ccnc2ccccc12` (stereo not drawn), the “% Inhibition” value was 1% and the Z score was -0.24. `CCN(Cc1cncn1C(C)C)CC1CCN(C2CCN(C)CC2)CC1` was tested, and the “% Inhibition” value was 16% and the Z score was -2.81. For `CC1CN(c2ccc(Nc3ncnc4c3CCC4)cc2)CC(C)O1` (stereo not drawn), the “% Inhibition” value was -2% and the Z score was 0.41. In the case of `CN(Cc1cccc2cnccc12)c1nccc(-c2cccnc2)n1`, the “% Inhibition” value is reported as -2% and the Z score is reported as 0.48. With `COc1ccc(-c2cc(C(F)F)nc(NCc3ccccc3Cl)n2)cc1OC` the “% Inhibition” value was -3% and the Z score was 0.54. For `N#Cc1ccc(NC2CCN(C(=O)c3csc(-c4ccsc4)n3)CC2)nc1`, the “% Inhibition” value was -9% and the Z score was 1.94. With `O=C(COc1ccc2oc3ccccc3c2c1)NCc1ccccc1Cn1ccnc1` the “% Inhibition” value was -2% and the Z score was 0.27. In the case of `Cc1cc(NC2COCC2N2CCN(C)CC2)n2nc(C)c(C)c2n1` (stereo not drawn), the “% Inhibition” value is reported as -6% and the Z score is reported as 0.99. In the case of `CCNc1nc(C)cc(Nc2ccc(NC(=O)Nc3ccc(F)cc3F)cc2)n1`, the “% Inhibition” value is reported as 96% and the Z score is reported as -20.77. With `CCN(C)CCN(C)C(=O)c1ccc(-c2ccc3nccc(O)c3c2)cc1` the “% Inhibition” value was -2% and the Z score was 0.36. With `CN(Cc1ccccc1F)C(=O)NC[C@@]1(C)CCC(=O)N1` the “% Inhibition” value was -8% and the Z score was 1.15. `c1cc(N2CCOCC2)nc(Nc2ccc(N3CCCCC3)cc2)n1` was tested, and the “% Inhibition” value was -7% and the Z score was 1.11. With `CC(C)(C)c1cnc(CCC(=O)NC2Cc3ccccc3C2O)o1` (stereo not drawn) the “% Inhibition” value was -3% and the Z score was 0.53. With `COCCN1CC[C@H](CNCc2ccc3c(c2)OC(F)(F)O3)C1` the “% Inhibition” value was 7% and the Z score was -1.09. With `Cc1nc2c(C)cccc2c(O)c1CC[C@H](C)NCCCn1ccnc1C` the “% Inhibition” value was -7% and the Z score was 1. In the case of `O=C(c1ccc2[nH]ncc2c1)N1CC[C@H](Oc2cccnc2N2CCCC2)C1`, the “% Inhibition” value is reported as -3% and the Z score is reported as 0.68. In the case of `Cc1nc2cc(OCc3nc(C(=O)N4CCC(=O)NC[C@@H]4C)co3)ccc2s1`, the “% Inhibition” value is reported as -3% and the Z score is reported as 0.48. With `Cc1ccc(Oc2cccc(C(=O)NCCNc3cc(-n4cccn4)ncn3)c2)nn1` the “% Inhibition” value was -6% and the Z score was 1.27.
